From PubChem BioAssay (NCI) come the findings set out here.

Molecules are shown by their SMILES.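 How tested: cells in 96-well plates exposed to compound for 48 hours at five concentrations. GI50: concentration for 50% inhibition of growth. Definition used: TGI = concentration required for complete inhibition of growth.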

The subject of the test is NCI-H322M lung. Put plainly: NCI anticancer screen, dose series, 48 h.

`Cc1[nH]nc2ccc3nc(-c4cn[nH]c4C(F)(F)F)c4c(c3c12)CCCC4`: the GI50 is 4.1 µM and the TGI was 16 µM.
The corresponding values for `COc1cccc(/C=N/NC(=O)c2ccc3nc(-c4ccc(Cl)cc4)[nH]c3c2)c1O` are 0.843 µM and 2.7 µM.
